From PMC5360024, “The Alzheimer’s disease risk factors apolipoprotein E and TREM2 are linked in a receptor signaling pathway” (Journal of Neuroinflammation, 2017)

What was measured:
Recombinant human TREM2 = target: T1, Recombinant human TREM2 (human, UniProt Q9NZC2 19-174); experiment: cell-based or functional assay
T1 sequence (looked up): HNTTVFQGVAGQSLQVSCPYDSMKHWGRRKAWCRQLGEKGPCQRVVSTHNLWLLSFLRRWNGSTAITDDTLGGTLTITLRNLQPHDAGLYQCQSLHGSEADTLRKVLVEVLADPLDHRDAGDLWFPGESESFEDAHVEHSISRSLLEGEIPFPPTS

[1] = target: Murine TREM2 fused to CD8 transmembrane and CD3ζ intracellular signaling domains, on BWZ-mTREM2 reporter cells (mouse | ); experiment: cell-based or functional assay

B1: Recombinant human ApoE ε2 (ligand)
chain: not shown
B1 was tested, and the “EC50 of NFAT/lacZ β-galactosidase reporter signal in BWZ-hTREM2 cells, wells coated with ApoE (3-300 nM)” value (Recombinant human TREM2) was 27 nM and the “EC50 of NFAT/lacZ β-galactosidase reporter signal in BWZ-mTREM2 cells, wells coated with ApoE (3-300 nM)” value [1] was 40 nM.
